Structures are written as SMILES. ± gives the uncertainty stated by the source. Whole data set: some 9,900 compounds, median “viability index relative to DMSO control” near 1, cut for the lowest 2% near 0.85. This is one part of the list.

The subject of this assay is Plasmodium falciparum NF54 stage V gametocytes. As to the kind of experiment: viability index relative to DMSO control (fraction); higher = less gametocyte killing. Particulars: 2.5 µM, library set: Broad Institute DOS, incubation time: 72 h. Summed up: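 Viability index is the count of red-stained particles in a well divided by the plate mean of solvent-only wells. Particles of 20–70 µm2 were counted in one imaged field per well after one to two hours with 3 µl of 2.5 µM MitoTracker Red CMXRos and 0.13% saponin. Before staining, P. falciparum NF54 stage V gametocytes in serum-free medium (0.75% gametocytemia, 1.25% hematocrit, 10 µl, 1,536-well plates) were kept with compound at 2.5 µM for 72 hr at 37°C under low oxygen.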
As to `C/C=C/c1ccc([C@@H]2[C@@H]3CN(S(=O)(=O)c4cccc(OC)c4)C[C@H]2N3)cc1`, the viability index stood at 0.9677 ± 0.0036.
In the case of `CO[C@H]1CN(C)C(=O)c2cc(NC(=O)c3nc4ccccc4s3)ccc2OC[C@@H](C)NC[C@H]1C`, the viability index was determined as 1.14 ± 0.05.
Regarding `COc1ccccc1NC(=O)N1CCCCN2[C@H](CO)[C@@H](c3ccc(-c4cccc(C#N)c4)cc3)[C@@H]2C1`, the viability index is 0.926 ± 0.01.
`CO[C@H]1CC[C@@H]2CCOc3c(C#N)cccc3C(=O)N(C)CC3(CCCCC3)CC(=O)N(C)C[C@@H]1O2`: the viability index turned out to be 1.05 ± 0.097.
`CCCC(=O)Nc1ccc2c(c1)C(=O)N(C)[C@H]1CC[C@H](CC(=O)NCc3cccc(F)c3)O[C@@H]1CO2` showed a viability index of 1.02 ± 0.059.
As to `CN(C)CC(=O)N1[C@@H](C#N)[C@H](c2ccc(-c3cccc(C(=O)N(C)C)c3)cc2)[C@@H]1CO`, the viability index turned out to be 1.16 ± 0.082.
The compound `C[C@@H]1CCCCO[C@@H](CN(C)Cc2ccc(Cl)c(Cl)c2)[C@@H](C)CN([C@H](C)CO)C(=O)c2cc(NS(=O)(=O)c3cccs3)ccc2O1` had a viability index of 1.05 ± 0.13.
In turn, `C[C@@H]1CN([C@H](C)CO)C(=O)c2c(c3ccccc3n2C)-c2ccccc2CO[C@@H]1CN(C)C(=O)[C@@H](Cc1ccccc1)N(C)C` came in with a viability index of 1.07 ± 0.018.
Under `COc1ccc(CNC(=O)c2cc3c(c(-c4cccc(-c5ccc(C#N)cc5)c4)n2)[C@H](CCO)N([S@@](=O)C(C)(C)C)C3)cc1` stands 0.977 ± 0.085.
The same measure for `N#C[C@@H]1[C@@H](c2ccc(-c3cccc(F)c3)cc2)[C@@H](CO)N1C(=O)NC1CCCC1`: 1.02 ± 0.035; for `CN(C)CC(=O)N1[C@H](C#N)[C@H](c2ccccc2-c2ccc(C(=O)N(C)C)cc2)[C@@H]1CO`: 1.14 ± 0.16.
The same measure for `CC(C)(C)[S@@](=O)N1Cc2cc(C(=O)N[C@@H]3CCN(Cc4ccccc4)C3)nc(-c3cccc(-c4cccnc4)c3)c2[C@H]1CCO`: 1.02 ± 0.06.
For the compound `O=C(CN1CCOCC1)N[C@H]1CC[C@@H](CCn2cc(C3CC3)nn2)O[C@@H]1CO`, the viability index was 1.06 ± 0.14.
In turn, `COc1ccc2c3c([C@@H](CO)NC[C@]33CCN(Cc4ccncc4)CC3)n(C)c2c1` registered a viability index of 1.01 ± 0.045.
`C[C@H]1CN([C@@H](C)CO)C(=O)c2cc(NC(=O)Nc3ccccc3)ccc2O[C@@H]1CN(C)Cc1ccccc1`: the viability index turned out to be 0.9913 ± 0.0053.
The same measure for `CCCC(=O)Nc1ccc2c(c1)C(=O)N(C)C[C@H](OC)[C@H](C)CN(Cc1ccc(F)cc1)[C@@H](C)CO2`: 1.041 ± 0.0013; for `C[C@H](CO)N1C[C@H](C)[C@@H](CN(C)C(=O)Nc2ccc3c(c2)OCO3)OCc2cn(nn2)CCCC1=O`: 0.989 ± 0.024.
Take `COC(=O)C[C@H]1CC[C@H](N)[C@@H](CO)O1`: the viability index worked out at 1.03 ± 0.017.
On to `COCCNC(=O)C[C@@H]1C[C@H]2c3cc(NC(=O)CN(C)C)ccc3O[C@H]2[C@@H](CO)O1`, for which the viability index was found to be 1.06 ± 0.043.
For `COc1ccc2c3c([nH]c2c1)[C@H](CO)N(Cc1ccccc1OC)C[C@]31CN(C1)C(C)=O`, the viability index is 0.9558 ± 0.0065.
The same measure for `C[C@@H](NC(=O)C[C@@H]1CC[C@H]2[C@@H](COC[C@H](O)CN2Cc2ccc(C(F)(F)F)cc2)O1)c1ccccc1`: 1.079 ± 0.0056; for `CO[C@H]1CN(C)C(=O)c2cc(NC(C)=O)ccc2OC[C@@H](C)N(C(=O)Cc2ccccn2)C[C@H]1C`: 1.11 ± 0.014.
`COc1ccc([C@@H]2C/C=C\C[C@H](c3ccc(F)cc3)NC(=O)CCC(=O)N2)c(OC)c1`: the viability index worked out at 1.015 ± 0.01.
Compound `CN1C(=O)c2cc(NC(=O)C3CCOCC3)ccc2OC[C@@H]2O[C@H](CC(=O)NCCc3ccncc3)CC[C@@H]21` returned a viability index of 1.122 ± 0.0072.
The same measure for `COc1cccc(-c2ccc3c(c2)[C@H]2[C@H](CCN2S(=O)(=O)c2cn(C)cn2)[C@H](CO)N3)c1`: 1.13 ± 0.085; for `Cc1ccc(NC(=O)Nc2ccc3c(c2)C(=O)N(C)[C@@H]2CC[C@@H](CC(=O)NCC(F)(F)F)O[C@H]2CO3)cc1`: 1.17 ± 0.072; for `CCCNC(=O)N1CC(=O)N2[C@H](C1)[C@@H](c1ccc(C#Cc3cccc(OC)c3)cc1)[C@@H]2CO`: 1.05 ± 0.059.
As for `O=C(C[C@@H]1CC[C@H]2[C@@H](COC[C@H](O)CN2C(=O)c2cnccn2)O1)NCc1ccc(Cl)cc1`, the viability index was determined as 1.08 ± 0.025.
As for `CN(C[C@H]1[C@H](c2ccccc2)[C@H](CO)N1Cc1ccccn1)S(C)(=O)=O`, the viability index came out at 1.04 ± 0.042.
As to `O=C(C1CCC1)N1CC2(C1)[C@H](c1ccccc1)[C@@H](CO)N2Cc1nccs1`, the viability index was 1.06 ± 0.056.
In turn, `CO[C@H]1CN(C)C(=O)c2cc(NC(=O)c3cnccn3)ccc2OC[C@@H](C)NC[C@H]1C` showed a viability index of 0.983 ± 0.06.
`COCC(=O)N1[C@H](C#N)[C@H](c2ccc(C#Cc3ccccc3F)cc2)[C@H]1CO` had a viability index of 1.13 ± 0.014.
Turning to `O=S(=O)(NC[C@H]1[C@@H](c2ccccc2)[C@@H](CO)N1CC1CC1)c1ccccc1`, the viability index is 0.985 ± 0.039.
On to `C/C=C/c1ccccc1[C@H]1[C@H](C#N)N(c2nc(CC)cs2)[C@H]1CO`, for which the viability index worked out at 1.08 ± 0.11.
Under `CN1[C@@H]2CN(C(=O)C3CCCCC3)c3ccccc3[C@@H]2[C@@H]1CO` stands 1.06 ± 0.063.
Under `OC[C@@H]1[C@@H](c2ccccc2)C2(CN(Cc3ccc4c(c3)OCO4)C2)N1Cc1ccccc1` stands 0.894 ± 0.024; under `Cc1noc(C)c1S(=O)(=O)Nc1cccc2c1O[C@@H](CN(C)Cc1ccc(C(F)(F)F)cc1)[C@@H](C)CN([C@@H](C)CO)C2=O`, 0.953 ± 0.062; under `COc1ccc(-c2ccc3c(c2)[C@H]2[C@H](CCN2C(=O)c2cccc(F)c2)[C@H](CO)N3)cc1`, 1.05 ± 0.037.
As to `COC(=O)C[C@@H]1CC[C@H]2[C@@H](COc3ccc(NC(=O)Nc4c(C)noc4C)cc3C(=O)N2C)O1`, the viability index is 0.9699 ± 0.0061.
`COCC(=O)N1CC[C@@H]2[C@H]1c1cc(C#Cc3ccc(F)cc3)ccc1N[C@@H]2CO` had a viability index of 1.08 ± 0.12.
In the case of `CO[C@H]1CC[C@@H]2CCOc3c(C#N)cccc3C(=O)N(C)C[C@H](OC)[C@H](C)C(=O)N(C)C[C@@H]1O2`, the viability index is 1.06 ± 0.041.
Regarding `COc1ccc2c3c([nH]c2c1)[C@@H](CO)N(C[C@]31CN(C)C1)C(=O)c1ccncc1`, the viability index amounted to 0.947 ± 0.14.
For the compound `O=C1C[C@@H](c2ccccc2)C(=O)N[C@@H](c2ccccc2)C/C=C\C[C@H](c2ccccc2)N1`, the viability index stood at 1.08 ± 0.048.
`C/C=C/c1ccc([C@H]2[C@@H]3CN(C(=O)Nc4ccc(C(F)(F)F)cc4)C[C@H]2N3)cc1` yielded a viability index of 1 ± 0.032.
Under `CCCC(=O)N1C[C@H]2[C@@H](c3ccccc31)[C@@H](CO)N2Cc1cocn1` stands 1.012 ± 0.0066.
The compound `COc1ccccc1NC(=O)N1C[C@@H](C)[C@H](OC)CN(C)C(=O)c2ccc(NC(=O)c3cc(C)on3)cc2OC[C@H]1C` showed a viability index of 1.04 ± 0.035.
